# According to the supplement of paper PMC8728848:
# Some of the results follow.
# What was measured:
# Assay in all cases: glycan array binding signal (z-score within array); higher = stronger binding
# Details in all cases: glycan notation: IUPAC condensed, linker removed
# [1] = target: Fuc(a1-2)Gal(b1-4)GlcNAc(b1-3)Gal(b1-4)GlcNAc(b1-3)Gal(b1-4)GlcNAc
# Outline: (§1)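 The binding signal is a Z-score computed within each array. Data were drawn from 3228 arrays in the Consortium for Functional Glycomics database, restricted to those with a known protein sequence. Scores were averaged over arrays of the same protein sequence at different concentrations or buffers, and over linkers, and negative values can be taken as non-binding.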
# [2] = target: Fuc(a1-2)Gal(b1-4)GlcNAc(b1-3)GalNAc
# Outline: as §1
# [3] = target: Fuc(a1-2)Gal(b1-4)GlcNAc(b1-3)[Fuc(a1-2)Gal(b1-4)GlcNAc(b1-6)]GalNAc
# Outline: as §1
# [4] = target: Fuc(a1-2)Gal(b1-4)GlcNAc(b1-3)[Fuc(a1-3)[Gal(b1-4)]GlcNAc(b1-6)]Gal(b1-4)Glc
# Outline: as §1
# [5] = target: Fuc(a1-2)Gal(b1-4)GlcNAc(b1-6)GalNAc
# Outline: as §1
# [6] = target: Fuc(a1-2)Gal(b1-4)GlcNAc6S
# Outline: as §1
# [7] = target: Fuc(a1-2)Gal(b1-4)[Fuc(a1-3)]GlcNAc
# Outline: as §1
# [8] = target: Fuc(a1-2)Gal(b1-4)[Fuc(a1-3)]GlcNAc(b1-2)Man(a1-3)[Fuc(a1-2)Gal(b1-4)[Fuc(a1-3)]GlcNAc(b1-2)Man(a1-6)]Man(b1-4)GlcNAc(b1-4)[Fuc(a1-6)]GlcNAc
# Outline: as §1
# [9] = target: Fuc(a1-2)Gal(b1-4)[Fuc(a1-3)]GlcNAc(b1-2)[Fuc(a1-2)Gal(b1-4)[Fuc(a1-3)]GlcNAc(b1-4)]Man(a1-3)[Fuc(a1-2)Gal(b1-4)[Fuc(a1-3)]GlcNAc(b1-2)Man(a1-6)]Man(b1-4)GlcNAc(b1-4)GlcNAc
# Outline: as §1
# [10] = target: Fuc(a1-2)Gal(b1-4)[Fuc(a1-3)]GlcNAc(b1-3)Gal(b1-4)[Fuc(a1-3)]GlcNAc
# Outline: as §1
# [11] = target: Fuc(a1-2)Gal(b1-4)[Fuc(a1-3)]GlcNAc(b1-3)Gal(b1-4)[Fuc(a1-3)]GlcNAc(b1-3)Gal(b1-4)[Fuc(a1-3)]GlcNAc
# Outline: as §1
# [12] = target: Fuc(a1-2)Gal(b1-4)[Fuc(a1-3)]GlcNAc(b1-3)GalNAc
# Outline: as §1
# [13] = target: Fuc(a1-2)Gal(b1-4)[Fuc(a1-3)]GlcNAc(b1-3)[Neu5Ac(a2-6)Gal(b1-4)GlcNAc(b1-6)]Gal(b1-4)Glc
# Outline: as §1
# [14] = target: Fuc(a1-2)Gal3S(b1-4)GlcNAc
# Outline: as §1
# [15] = target: Fuc(a1-2)Gal6S(b1-3)GlcNAc
# Outline: as §1
# [16] = target: Fuc(a1-2)Gal6S(b1-3)GlcNAc6S
# Outline: as §1
# Fuc(a1-2)Gal6S(b1-4)Glc = target: Fuc(a1-2)Gal6S(b1-4)Glc
# Outline: as §1
# [17] = target: Fuc(a1-2)Gal6S(b1-4)Glc6S
# Outline: as §1
# Fuc(a1-2)[Gal(a1-3)]Gal = target: Fuc(a1-2)[Gal(a1-3)]Gal
# Outline: as §1
# [18] = target: Fuc(a1-2)[Gal(a1-3)]Gal(b1-3)GalNAc
# Outline: as §1
# [19] = target: Fuc(a1-2)[Gal(a1-3)]Gal(b1-3)GalNAc(b1-3)Gal(a1-4)Gal(b1-4)Glc
# Outline: as §1
# [20] = target: Fuc(a1-2)[Gal(a1-3)]Gal(b1-3)GlcNAc
# Outline: as §1
# [21] = target: Fuc(a1-2)[Gal(a1-3)]Gal(b1-3)GlcNAc(b1-2)Man(a1-3)[Fuc(a1-2)[Gal(a1-3)]Gal(b1-3)GlcNAc(b1-2)Man(a1-6)]Man(b1-4)GlcNAc(b1-4)GlcNAc
# Outline: as §1
# [22] = target: Fuc(a1-2)[Gal(a1-3)]Gal(b1-3)GlcNAc(b1-2)Man(a1-3)[Fuc(a1-2)[Gal(a1-3)]Gal(b1-3)GlcNAc(b1-2)Man(a1-6)]Man(b1-4)GlcNAc(b1-4)[Fuc(a1-6)]GlcNAc
# Outline: as §1
# [23] = target: Fuc(a1-2)[Gal(a1-3)]Gal(b1-3)GlcNAc(b1-3)GalNAc
# Outline: as §1
# [24] = target: Fuc(a1-2)[Gal(a1-3)]Gal(b1-3)GlcNAc(b1-6)GalNAc
# Outline: as §1
# [25] = target: Fuc(a1-2)[Gal(a1-3)]Gal(b1-4)Glc
# Outline: as §1
# [26] = target: Fuc(a1-2)[Gal(a1-3)]Gal(b1-4)GlcNAc
# Outline: as §1
# [27] = target: Fuc(a1-2)[Gal(a1-3)]Gal(b1-4)GlcNAc(b1-2)Man
# Outline: as §1
# [28] = target: Fuc(a1-2)[Gal(a1-3)]Gal(b1-4)GlcNAc(b1-2)Man(a1-3)[Fuc(a1-2)[Gal(a1-3)]Gal(b1-4)GlcNAc(b1-2)Man(a1-6)]Man(b1-4)GlcNAc(b1-4)GlcNAc
# Outline: as §1
# [29] = target: Fuc(a1-2)[Gal(a1-3)]Gal(b1-4)GlcNAc(b1-2)Man(a1-3)[Fuc(a1-2)[Gal(a1-3)]Gal(b1-4)GlcNAc(b1-2)Man(a1-6)]Man(b1-4)GlcNAc(b1-4)[Fuc(a1-6)]GlcNAc
# Outline: as §1
# [30] = target: Fuc(a1-2)[Gal(a1-3)]Gal(b1-4)GlcNAc(b1-3)GalNAc
# Outline: as §1
# [31] = target: Fuc(a1-2)[Gal(a1-3)]Gal(b1-4)GlcNAc(b1-3)[Fuc(a1-2)[Gal(a1-3)]Gal(b1-4)GlcNAc(b1-6)]GalNAc
# Outline: as §1
# [32] = target: Fuc(a1-2)[Gal(a1-3)]Gal(b1-4)GlcNAc(b1-6)GalNAc
# Outline: as §1
# [33] = target: Fuc(a1-2)[Gal(a1-3)]Gal(b1-4)[Fuc(a1-3)]Glc
# Outline: as §1
# [34] = target: Fuc(a1-2)[Gal(a1-3)]Gal(b1-4)[Fuc(a1-3)]GlcNAc
# Outline: as §1
# [35] = target: Fuc(a1-2)[Gal(a1-3)]Gal(b1-4)[Fuc(a1-3)]GlcNAc(b1-3)GalNAc
# Outline: as §1
binder,measurement,setting,value
FimD (Bordetella pertussis) (protein) MPARVISFCGAALAVWAGLAVQPAMAVDPPVDCGRALGLHFWSSASLISDQTPDGTLIGKPVVGRSLLSKSCKVPDDIKEDLSDNHDGEPVDIVLELGSNYKIRPQSYGHPGIVVDLPFGSTEETGIAIYIDFGSSPMQKVGERQWLYPQKGEVLFDVLTINGDNAEVRYQAIKVGPLKRPRKLVLSQFPNLFTYKWVFMRGTSQERVLAQGTIDTDVATSTIDLKTCRYTSQTVSLPIIQRSALTGVGTTLGMTDFQMPFWCYGWPKVSVYMSATKTQTGVDGVALPATGQAAGMASGVGVQLINGKTQQPVKLGLQGKIALPEAQQTESATFSLPMKAQYYQTSTSTSAGKLSVTYAVTLNYD,glycan array binding signal (z-score),[1],-0.426
same,glycan array binding signal (z-score),[2],-0.228
same,glycan array binding signal (z-score),[3],0.004
same,glycan array binding signal (z-score),[4],0.226
same,glycan array binding signal (z-score),[5],-0.227
same,glycan array binding signal (z-score),[6],-0.052
same,glycan array binding signal (z-score),[7],-0.158
same,glycan array binding signal (z-score),[8],0.57
same,glycan array binding signal (z-score),[9],0.133
same,glycan array binding signal (z-score),[10],0.137
same,glycan array binding signal (z-score),[11],-0.409
same,glycan array binding signal (z-score),[12],0.635
same,glycan array binding signal (z-score),[13],-0.355
same,glycan array binding signal (z-score),[14],-0.457
same,glycan array binding signal (z-score),[15],-0.232
same,glycan array binding signal (z-score),[16],0.716
same,glycan array binding signal (z-score),Fuc(a1-2)Gal6S(b1-4)Glc,-0.056
same,glycan array binding signal (z-score),[17],0.129
same,glycan array binding signal (z-score),Fuc(a1-2)[Gal(a1-3)]Gal,-0.036
same,glycan array binding signal (z-score),[18],0.05
same,glycan array binding signal (z-score),[19],-0.323
same,glycan array binding signal (z-score),[20],-0.256
same,glycan array binding signal (z-score),[21],-0.45
same,glycan array binding signal (z-score),[22],-0.218
same,glycan array binding signal (z-score),[23],-0.424
same,glycan array binding signal (z-score),[24],-0.383
same,glycan array binding signal (z-score),[25],-0.278
same,glycan array binding signal (z-score),[26],-0.119
same,glycan array binding signal (z-score),[27],0.021
same,glycan array binding signal (z-score),[28],0.604
same,glycan array binding signal (z-score),[29],-0.398
same,glycan array binding signal (z-score),[30],-0.296
same,glycan array binding signal (z-score),[31],0.518
same,glycan array binding signal (z-score),[32],-0.414
same,glycan array binding signal (z-score),[33],-0.318
same,glycan array binding signal (z-score),[34],-0.1
same,glycan array binding signal (z-score),[35],0.212
